{
  "source": "PubChem BioAssay (NCATS)",
  "note": "Where “and” joins values, the source holds several entries; their conditions need not be identical. Equal entries are not always repeated. The inconclusive results got no clear call from the source; some entries with a clear call stand among them for comparison. Potencies beside an inconclusive call are fits to weak or partial responses and may not hold up. Calls of active or inactive are those of the source. The call rests on the fitted dose curve; in most records, active means well fitted cell-killing curve with a large enough effect; inconclusive means small, poorly fitted or top-dose-only effect; inactive means flat fitted curve, though single readings scatter. Potency means the concentration at half of the fitted maximal effect; tags describe the fitted curve by direction and shape.",
  "data": [
    {"assay": "qHTS of pediatric cancer cell lines to identify multiple opportunities for drug repurposing: Primary screen for TC32 cells (AID 1347089); further: nearly all actives have a fitted effect of over 60% in size; on activity change, negative = cytotoxic: on the % scale 0 is the no-effect control and ±100 the full control effect", "details": "TC32 Ewing sarcoma viability, CellTiter-Glo luminescence, 48 h; series mostly up to 45.8 µM; activity change, negative = cytotoxic: at the top concentration", "outline": "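Luminescent CellTiter-Glo read-out of metabolically active TC32 cells after 48 h compound exposure. Primary: MIPE 11-point, 0.78 nM–46 µM; NPC 8-point, 0.59 nM–46 µM. Confirmatory: 11-point dilutions.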", "values": [
      {"smiles": "N[C@H](Cc1c[nH]c2ccccc12)C(=O)O", "activity change, negative = cytotoxic": "inactive: -6.08%"},
      {"smiles": "CCC1=C[C@@H]2CN(C1)Cc1c([nH]c3ccccc13)[C@@](C(=O)OC)(c1cc3c(cc1OC)N(C)[C@@H]1[C@@](O)(C(=O)OC)[C@H](OC(C)=O)[C@]4(CC)C=CCN5CC[C@]31[C@@H]54)C2", "Potency": "active: 0.104 µM"},
      {"smiles": "C[C@@]12C(=O)OC(=O)[C@]1(C)C1CCC2O1", "Potency": "active: 6.64 µM"},
      {"smiles": "CC(=O)OCC(=O)[C@@]12N=C(C)O[C@@H]1C[C@H]1[C@@H]3CCC4=CC(=O)C=C[C@]4(C)[C@H]3[C@@H](O)C[C@@]12C", "activity change, negative = cytotoxic": "inactive: 7.13%"},
      {"smiles": "CCC(C)(C)C(=O)O[C@H]1C[C@@H](C)C=C2C=C[C@H](C)[C@H](CC[C@@H]3C[C@@H](O)CC(=O)O3)[C@H]21", "Potency": "inconclusive: 10.5 µM [cytotoxic, partial curve, poor fit] and inconclusive: 26.2 µM [cytotoxic, partial curve, poor fit]"},
      {"smiles": "NC(=O)c1ncn([C@@H]2O[C@H](CO)[C@@H](O)[C@@H]2O)n1", "activity change, negative = cytotoxic": "inactive: 18%"},
      {"smiles": "C#Cc1cccc(Nc2ncnc3cc(OCCOC)c(OCCO)cc23)c1", "Potency": "inconclusive: 13.1 µM [cytotoxic, partial curve]"},
      {"smiles": "CC(C)c1cnn2c(NCc3ccccc3)cc(N[C@@H](CO)[C@H](O)CO)nc12", "Potency": "active: 1.47 µM"},
      {"smiles": "Oc1ccc(Cl)cc1Sc1cc(Cl)ccc1O", "Potency": "inconclusive: 29.7 µM [cytotoxic, single point]"},
      {"smiles": "CC(C)(Sc1cc(C(C)(C)C)c(O)c(C(C)(C)C)c1)Sc1cc(C(C)(C)C)c(O)c(C(C)(C)C)c1", "Potency": "inconclusive: 37 µM [cytotoxic, single point]"},
      {"smiles": "C[C@@H]1C[C@H]2[C@@H]3C[C@H](F)C4=CC(=O)C(Cl)=C[C@]4(C)[C@@]3(F)[C@@H](O)C[C@]2(C)[C@@]1(O)C(=O)CO", "activity change, negative = cytotoxic": "inactive: 5.92%"},
      {"smiles": "CCCc1ncc(C[n+]2ccccc2C)c(N)n1", "activity change, negative = cytotoxic": "inactive: 10.6%"},
      {"smiles": "COc1ccc(C2C(=O)c3ccccc3C2=O)cc1", "activity change, negative = cytotoxic": "inactive: 12.8%"},
      {"smiles": "O=C1NC(=O)C(c2cnc3ccccn23)=C1c1cn2c3c(cccc13)CN(C(=O)N1CCOCC1)CC2", "Potency": "inconclusive: 9.3 µM [cytotoxic, single point]"},
      {"smiles": "Cc1ccc(C(=O)Nc2cccc(C(F)(F)F)c2)cc1-c1ccc2nc(NCCN3CCOCC3)ncc2c1", "Potency": "active: 18.6 µM"},
      {"smiles": "CC(=O)N1CCN(c2ccc(OCc3nn(C)c(C)c3-c3cccc4c(CCCOc5cccc6ccccc56)c(C(=O)O)n(Cc5cccnc5)c34)cc2)CC1", "Potency": "inconclusive: 1.65 µM [cytotoxic, full curve, poor fit]"},
      {"smiles": "Nc1nc(N)c2nc(CNc3ccc(C(=O)NC(CCC(=O)O)C(=O)O)cc3)cnc2n1", "note": "(centres undefined)", "Potency": "inconclusive: 0.104 µM [cytotoxic, full curve, poor fit]"},
      {"smiles": "Cc1nnc(NS(=O)(=O)c2ccc(N)cc2)s1", "Potency": "inconclusive: 18.6 µM [cytotoxic, partial curve]"},
      {"smiles": "CCCCCCNC(=O)n1cc(F)c(=O)[nH]c1=O", "Potency": "inconclusive: 13.3 µM [cytotoxic, single point] and inconclusive: 14.7 µM [cytotoxic, partial curve]"},
      {"smiles": "Nc1ccc(C(=O)Nc2ccccc2N)cc1", "Potency": "inconclusive: 23.6 µM [cytotoxic, single point]"},
      {"smiles": "COc1ccc(C=Cc2cc(OC)c(OC)c(OC)c2)cc1NC(=O)[C@H](N)CO", "Potency": "active: 0.0415 µM"}
    ]},
    {"assay": "qHTS of pediatric cancer cell lines to identify multiple opportunities for drug repurposing: Primary screen for DAOY cells (AID 1347090); further: nearly all actives have a fitted effect of over 55% in size;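 on activity change, negative = cytotoxic: plate controls were DMSO for no effect and bortezomib for full effect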", "details": "DAOY medulloblastoma viability, CellTiter-Glo luminescence, 48 h; series mostly up to 46 µM; activity change, negative = cytotoxic: at the top concentration", "outline": "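Viability measured as metabolically active cells via CellTiter-Glo luminescence following 48 hours of compound exposure, 11-point dilutions in confirmatory testing. 500-1,000 cells/well plated 5 hours before dosing; controls were DMSO and 2.3 µM bortezomib.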", "values": [
      {"smiles": "Cc1cc([C@@H](C)Nc2ccccc2C(=O)O)c2nc(N3CCOCC3)cc(=O)n2c1", "Potency": "active: 0.679 µM"},
      {"smiles": "C[C@H](NC(=O)C(C#N)=Cc1cccc(Br)n1)c1ccccc1", "Potency": "inconclusive: 37.2 µM [cytotoxic, single point]"},
      {"smiles": "Cn1cc(C=CC(=O)c2cccc(F)c2)cc1C=CC(=O)NO", "Potency": "inconclusive: 23.5 µM [cytotoxic, single point]"},
      {"smiles": "CN1[C@@H]2CC(OC(=O)[C@H](CO)c3ccccc3)C[C@H]1[C@@H]1O[C@@H]12", "note": "(some centres undefined)", "Potency": "inconclusive: 26.6 µM [cytotoxic, single point]"},
      {"smiles": "COC(=O)[C@@H]1CC2=CC(=O)CC[C@]2(C)[C@@]23O[C@@H]2C[C@@]2(C)[C@H](CC[C@@]24CCC(=O)O4)[C@@H]13", "activity change, negative = cytotoxic": "inactive: 10.7%"},
      {"smiles": "CC(C)(C(=O)c1cccnc1)c1cccnc1", "activity change, negative = cytotoxic": "inactive: -3.67%"},
      {"smiles": "CC1=C(C/C=C(\\C)CCC[C@H](C)CCC[C@H](C)CCCC(C)C)C(=O)c2ccccc2C1=O", "activity change, negative = cytotoxic": "inactive: -6.95%"},
      {"smiles": "NC(=O)c1noc([C@H](CCCC2CCCCC2)CC(=O)NO)n1", "Potency": "active: 14.8 µM"},
      {"smiles": "CNCCC(Oc1ccc(C(F)(F)F)cc1)c1ccccc1", "note": "(centres undefined)", "Potency": "inconclusive: 16.8 µM [cytotoxic, partial curve, poor fit]"},
      {"smiles": "CCCN(CCC)CCc1cccc2c1CC(=O)N2", "activity change, negative = cytotoxic": "inactive: -1.47%"},
      {"smiles": "COc1ccc(S(=O)(=O)Nc2cc(-c3c(O)ccc4ccccc34)c(O)c3ccccc23)cc1", "Potency": "inconclusive: 23.5 µM [cytotoxic, single point]"},
      {"smiles": "CC(=O)OCC(=O)[C@@]1(OC(C)=O)[C@@H](C)C[C@H]2[C@@H]3C[C@H](F)C4=CC(=O)C=C[C@]4(C)[C@@]3(F)[C@@H](O)C[C@@]21C", "activity change, negative = cytotoxic": "inactive: -1.46%"},
      {"smiles": "C=CCc1ccc(O)c(OC)c1", "activity change, negative = cytotoxic": "inactive: 1.48%"},
      {"smiles": "C[C@@H](c1ncncc1F)[C@](O)(Cn1cncn1)c1ccc(F)cc1F", "Potency": "inconclusive: 18.7 µM [cytotoxic, partial curve, poor fit]"},
      {"smiles": "CC1(CN2CCC(n3c(=O)[nH]c4ccccc43)CC2)OCc2ccccc2-n2cccc21", "note": "(centres undefined)", "Potency": "inconclusive: 23.5 µM [cytotoxic, partial curve, poor fit]"},
      {"smiles": "NC[C@H]1O[C@H](O[C@H]2[C@H](O[C@@H]3O[C@H](CO)[C@@H](O)[C@H]3O)C(O)[C@H](N)C[C@@H]2N)[C@H](N)[C@@H](O)[C@@H]1O", "note": "(some centres undefined)", "activity change, negative = cytotoxic": "inactive: 6.37% [at 9.22 µM]"},
      {"smiles": "CC1(C)O[C@@H]2C[C@@H]3[C@H]4C[C@@H](F)C5=CC(=O)C=C[C@]5(C)[C@@]4(F)[C@@H](O)C[C@]3(C)[C@]2(C(=O)CO)O1", "Potency": "inconclusive: 7.43 µM [cytotoxic, full curve, poor fit]"},
      {"smiles": "C[C@@H](O)[C@H]1C(=O)N2C(C(=O)O)=C([C@H]3CCCO3)S[C@H]12", "activity change, negative = cytotoxic": "inactive: 13.1%"}
    ]}
  ]
}
